Measurements taken from PubChem BioAssay AID1460 (National Center for Advancing Translational Sciences (NCATS), 2008).
Out of some 270,000 compounds screened, about 5,800 (2.1%) were called active. The inconclusive results got no clear call from the source; some entries with a clear call stand among them for comparison. The call rests on the fitted dose curve; in most records, active means well fitted inhibition curve with a large enough effect; inconclusive means small, poorly fitted or top-dose-only effect; inactive means flat fitted curve, though single readings scatter. Potencies of inconclusive entries are doubtful fits and often do not repeat.

Molecular target: Microtubule-associated protein tau (Homo sapiens) (UniProt P10636)
Sequence of UniProt P10636 (P10636 whole entry, looked up): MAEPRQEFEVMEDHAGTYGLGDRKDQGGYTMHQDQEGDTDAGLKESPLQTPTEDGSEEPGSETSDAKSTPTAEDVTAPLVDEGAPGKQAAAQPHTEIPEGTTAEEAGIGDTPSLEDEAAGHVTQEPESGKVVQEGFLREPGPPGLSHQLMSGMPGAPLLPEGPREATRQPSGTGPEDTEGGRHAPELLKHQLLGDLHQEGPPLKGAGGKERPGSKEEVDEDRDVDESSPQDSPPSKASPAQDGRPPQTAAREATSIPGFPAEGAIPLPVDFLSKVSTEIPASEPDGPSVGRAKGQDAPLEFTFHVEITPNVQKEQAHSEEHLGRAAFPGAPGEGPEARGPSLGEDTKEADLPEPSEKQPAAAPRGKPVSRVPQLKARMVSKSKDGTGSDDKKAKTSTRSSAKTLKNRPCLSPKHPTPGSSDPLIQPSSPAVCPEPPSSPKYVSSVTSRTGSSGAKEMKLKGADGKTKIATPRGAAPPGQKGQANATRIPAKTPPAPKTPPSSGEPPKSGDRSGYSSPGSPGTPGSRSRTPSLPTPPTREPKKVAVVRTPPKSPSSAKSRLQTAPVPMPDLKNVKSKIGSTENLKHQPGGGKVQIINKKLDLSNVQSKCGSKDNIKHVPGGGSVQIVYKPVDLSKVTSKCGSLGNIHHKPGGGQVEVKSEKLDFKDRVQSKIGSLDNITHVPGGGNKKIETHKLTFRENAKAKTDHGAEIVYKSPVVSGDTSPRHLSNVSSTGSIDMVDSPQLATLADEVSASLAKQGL
Test: qHTS for Inhibitors of Tau Fibril Formation, Thioflavin T Binding; further: nearly all actives have a fitted effect of over 55% in size
Conditions: recombinant tau K18 P301L (four-repeat tau fragment), heparin-induced fibrillization, ThT fluorescence; series mostly up to 57.4 µM
Summary of the method: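 Aggregation was driven by heparin (20 uM final) acting on recombinant tau […] bearing P301L in 100 mM sodium acetate pH 7; fibrils were detected with Thioflavin T.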
On the % scale 0 is the no-effect control and ±100 the full control effect; potency means the concentration at half of the fitted maximal effect; tags describe the fitted curve by direction and shape.

| SMILES | Potency | activity, negative = inhibition |
| --- | --- | --- |
| Cc1noc(NS(=O)(=O)c2ccc(NC(=O)CSc3nc4c(cc3C#N)CCCC4)cc2)c1C | inconclusive: 15.8 µM [inhibitor, partial curve, poor fit] | – |
| Cc1cc(C(=O)NC(=S)Nc2ccccc2N2CCCC2)ccc1[N+](=O)[O-] | inactive | – |
| O=C(Nc1ccc2c(c1)OCO2)[C@@H]1[C@@H]2C(=O)N(C3CCCCC3)C(=O)[C@@H]2C2c3ccccc3C=CN21 (stereo not given in full) | inconclusive: 31.6 µM [inhibitor, partial curve] | – |
| COc1ccc(NCc2cc3cc(OC)ccc3[nH]c2=O)cc1 | active: 7.94 µM | – |
| CCOC(=O)c1sc2nc(NC(=O)C(C)(C)C)sc2c1C | inconclusive: 28.2 µM [inhibitor, single point] | – |
| COc1ccc(O)c(C2=Nc3ccccc3N=C(c3cccs3)C2)c1 | inconclusive: 39.8 µM [inhibitor, single point] | – |
| Cc1ccc(NC(=O)c2cccc3c(=O)c4c([nH]c23)CCCC4)c(C)c1 | inconclusive: 44.7 µM [inhibitor, single point] | – |
| COc1ccc(C(=O)NCCc2csc(-c3ccc(Cl)cc3)n2)cc1 | inconclusive: 12.6 µM [inhibitor, partial curve, poor fit] | – |
| CCOC(=O)c1ccc(NC(=S)NCCc2ccccc2)cc1 | inconclusive: 5.62 µM [inhibitor, partial curve] | – |
| Nc1ccc(N2CCN(c3ccc(Cl)c(Cl)c3)CC2)cc1 | active: 15.8 µM | – |
| CC1=N/C(=C/c2cccnc2)C(=O)O1 | inactive | – |
| O=c1c(NCc2cccs2)nccn1-c1ccccc1 | inactive | – |
| Cc1[nH][nH]c(=O)c1C(c1cc2c(cc1Br)OCO2)c1c(C)[nH][nH]c1=O | inconclusive: 12.6 µM [inhibitor, partial curve] | – |
| Cc1c(C(=O)O)c(=S)sn1CCOc1ccccc1 | inactive | – |
| Cc1ccc(/C=C/C(=O)c2ccccc(=O)c2O)c(C)c1 | inconclusive: 14.1 µM [inhibitor, partial curve] | – |
| COc1cc(CN2CCC(C(=O)NC3CCCC3)CC2)cc(OC)c1O | inactive | – |
| CCCNC(=O)c1ccc(-c2nc3ccccc3s2)s1 | inconclusive: 1.41 µM [inhibitor, full curve] | – |
| Brc1ccccc1OCCCCn1cnc2ccccc21 | inconclusive: 39.8 µM [inhibitor, single point] | – |
| C#CCOCCOCCOCCNc1nc(N2CCN(C(=O)[C@H]([C@@H](C)CC)n3cc([C@@H](N)CO)nn3)CC2)nc(N2CCN(C(=O)[C@H](CCCCN)n3cc([C@@H](N)CC(C)C)nn3)CC2)n1 | inactive | – |
| Cc1ccn(C(=O)c2ccc(NC(=O)C3CC3)cc2)n1 | inactive | – |
| C=CCn1c(C)cc(C(=O)COC(=O)c2ccc(N)c([N+](=O)[O-])c2)c1C | inconclusive: 12.6 µM [inhibitor, partial curve] | – |
| Cc1cc(C)n2cc(CSCc3ccco3)nc2n1 | inconclusive: 44.7 µM [inhibitor, partial curve] | – |
| CN(C)CCCOC(=O)COc1ccc(C(C)(C)C)cc1 | inactive | – |

| SMILES | Potency | activity, negative = inhibition |
| --- | --- | --- |
| O=C(COc1ccccc1F)Nc1nnc(SCc2cc(=O)n3ccccc3n2)s1 | inactive | – |
| CCCCc1nc2c(c3c1C[C@H](C)OC3)CN(C(=O)c1ccco1)CC2 | – | inactive: -2.34% [at 11.5 µM] |
| CC1CCN(c2cc(N(C)CCO)c([N+](=O)[O-])c3nonc23)CC1 | inconclusive: 20 µM [inhibitor, partial curve] | – |
| O=C(Nc1nc(=O)n(C(=O)c2cccc(C(F)(F)F)c2)s1)c1ccccc1 | inconclusive: 14.1 µM [inhibitor, partial curve] | – |
| Cc1ccc(NC(=O)c2ccc(Br)o2)cc1S(=O)(=O)N(C)C | inactive | – |
| COc1ccc(NC(=O)CSc2nnc(-c3ccccc3C)n2N)cc1 | inconclusive: 20 µM [inhibitor, partial curve] | – |
| CCC(C)C(=O)N1c2ccccc2C(=C2SC(C(=O)OC)=C(C(=O)OC)S2)C(=S)C1(C)C (stereo not given) | active: 3.98 µM | – |
| C/C(N)=C(/C#N)C(=O)CSc1nc2cc(Cl)ccc2s1 | inconclusive: 22.4 µM [inhibitor, partial curve] | – |
| Cc1cc(C(=O)CN2CC(C)OC(C)C2)c(C)n1-c1ccccc1 (stereo not given) | inconclusive: 14.1 µM [inhibitor, partial curve] | – |
| COc1cc(NC(=O)Nc2cccc([N+](=O)[O-])c2)cc(OC)c1 | inconclusive: 12.6 µM [inhibitor, partial curve] | – |
| Cc1cc(=O)n2nc(N3CCCC(C(=O)N4CCN(c5ccccc5)CC4)C3)sc2n1 (stereo not given) | inactive | – |
| COc1cccc(NC(=O)c2ccc3snnc3c2)c1 | inconclusive: 20 µM [inhibitor, single point] | – |
| CCC(=O)C1=C(c2ccccc2)N(C(=O)CC)n2c(nnc2-c2ccccc2)S1 | inconclusive: 10 µM [inhibitor, partial curve] | – |
| Cc1ccc(N(CC(=O)Nc2ccc(F)cc2F)S(=O)(=O)c2cccs2)cc1 | inactive | – |
| O=C(Nc1nccs1)c1ccc(Cl)c(S(=O)(=O)N2CCOCC2)c1 | inactive | – |
| CC(C)C1NC(=O)[C@H](CCCCN)NC(=O)[C@@H](Cc2c[nH]c3ccccc23)NC(=O)[C@H](Cc2ccc(O)cc2)NC(=O)[C@H](C)N(C)C(=O)[C@H](Cc2ccccc2)NC1=O (stereo not given in full) | inactive | – |
| CCOc1ccc(C2C(C#N)=C(N)SC(N)=C2C#N)cc1OC | inconclusive: 25.1 µM [inhibitor, single point] | – |
| O=C1CCCC2=C1Sc1ccc(Cl)cc1N2 | active: 6.31 µM | – |
| Cc1nc(C)c(/C(O)=C/c2nc3ccc([N+](=O)[O-])cc3oc2=O)o1 | inconclusive: 0.0251 µM [inhibitor, full curve, poor fit] | – |
| COC(=O)Cc1cc(=O)n(-c2nc3ccccc3s2)[nH]1 | inconclusive: 12.6 µM [inhibitor, partial curve] | – |
| CCOC(=O)C1=C(O)C(=O)N(Cc2ccccc2)C1 | inconclusive: 28.2 µM [inhibitor, partial curve] | – |
| CC1=NN(c2ccccc2)C(=O)/C1=C/c1cccs1 | inconclusive: 11.2 µM [inhibitor, partial curve] | – |
